Experimental data reported in US10647664B2, “Substituted hydroxamic acid compounds” (Duke University, priority 2013, dated 2020).

What was measured:
[1] = test system: modified E. coli with the native lpxC gene replaced by that of P. aeruginosa (W3110PA); assay: MIC, E. coli W3110PA; settings: Escherichia coli, read-out: MIC E. coli W3110PA, E. coli W3110PA (P. aeruginosa lpxC)
Experimental: […] . This PCR product is gel purified and then electroporated into E. coli DY330 cells, which carry λ-red recombinases, using a Bio-Rad Gene Pulser II set to 2.5 kV, 25 μF, and 400Ω. While DY330 cannot survive on the LB/agar plate supplemented with 15 μg/mL of the compound of disclosure, cells wherein E. coli lpxC replaced with P. aeruginosa lpxC can survive on this media. Transformants are therefore selected directly using the compound of disclosure without introducing a closely linked resistance cassette for a different antibiotic marker. Genomic DNA from resistant colonies is isolated, and the region around lpxC amplified with primers 300-up-lpxC (5′-[…] TG-3′) and 300-down-lpxC (5′-[…] A-3′), and sequenced with primers paLpxC-361-5′ (5′-[…] AA-3′) and paLpxC-581-3′ (5′-[…] CA-3′). […]
MICs are determined according to the NCCLS protocol using 96-well plates. […] MIC is determined as the lowest concentration of an antibiotic that prevented color change (yellow to purple).
The antibiotic activities of several exemplary compounds useful in the methods of the disclosure are evaluated by measurements of minimum inhibitory concentrations (MICs) using wild-type E. coli (W3110), P. aeruginosa (PAO1), F. novicida U112 (FNU112), and modified E. coli strains with the native lpxC gene replaced by that of R. leguminosarum (W3110RL) or P. aeruginosa (W3110PA).

E. coli W3110NG = assay: MIC, E. coli W3110NG; type: cell-based; settings: Escherichia coli
Experimental: MICs are determined according to the NCCLS protocol using 96-well plates. Briefly, diluted bacterial cells (10^6 cells/mL) are added into each well of the 96-well plates containing LB medium with 5% DMSO and various concentrations of the compound of disclosure. After incubation of the plates for 22 hours at 37° C., [4,5-dimethylthiazol-2-yl]-2,5-diphenyltetrazolium bromide solution (MTT) is added (final concentration, 0.2 mg/mL) and incubated at 37° C. for another 3 hrs. MIC is determined as the lowest concentration of an antibiotic that prevented color change (yellow to purple).

| SMILES | MIC [1] [µg/mL] | MIC (E. coli W3110NG) [µg/mL] |
| --- | --- | --- |
| CC(NC(=O)c1ccc(C#Cc2ccc(CN3CCOCC3)cc2)cc1)(C(=O)NO)C(C)(O)C(F)F (stereo not drawn) [Example 2, N-(4,4-difluoro-3-hydroxy-1-(hydroxyamino)-2,3-dimethyl-1-oxobutan-2-yl)-4-((4-(morpholinomethyl)phenyl)ethynyl)benzamide] | 50 (≈ 99.7 µM) | – |
| CC(CCn1ccc(C#Cc2ccccc2)cc1=O)(C(=O)NO)S(C)(=O)=O (stereo not drawn) [Example 30, N-hydroxy-2-methyl-2-(methylsulfonyl)-4-(2-oxo-4-(phenylethynyl)pyridin-1 (2H)-yl)butanamide] | < 0.78 | 2.5 (≈ 6.44 µM) |

Converted amounts (≈) assume the structure as drawn.
